Over roughly 33,000 sequences, “E-score (-0.5 to 0.5)” has its median near -0.056; the highest 2% begin near 0.38. The list shows a part of the results.
Each sequence was assayed against Stb4 (UniProt P50104) (assay: PBM E-score (8-mer binding enrichment) (E-score (-0.5 to 0.5)); higher = stronger / more preferred TF binding; most listed sequences are background and not binding sites). Conditions: protein concentration: 200 nM; construct: GST-DNA-binding domain.
Description: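 Universal 'all 10-mer' protein binding microarrays (Agilent AMADID 015681) probed with GST-tagged S. cerevisiae TFs (full-length or DBD) made by in vitro transcription/translation (PURExpress), about 100-200 nM. Bound TF was detected with fluorescent anti-GST. Each ungapped 8-mer (which stands for itself and its reverse complement) is scored by the PBM enrichment score (E-score), a modified Wilcoxon-Mann-Whitney statistic from -0.5 to +0.5, computed with the Universal PBM Analysis Suite. Scale: above 0.35 generally sequence-specific binding.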

Row | Sequence | PBM E-score
1 | AGTGATAT | 0.0337
2 | TGAGAACA | -0.212
3 | GAAGGGGC | -0.126
4 | AACATGTC | -0.06
5 | GACAGACA | 0.103
6 | ATTATCTG | -0.00421
7 | CTGGAGGC | -0.174
8 | ATTGCGGC | 0.0484
9 | AGTTTATC | 0.0999
10 | CTTTGCCA | -0.0706
11 | CCATCGTA | -0.186
12 | ATTCGGGA | 0.415
13 | AATTCTTA | -0.0318
14 | CCCGGGAA | 0.355
15 | ACCGCAAA | 0.0423
16 | AATAGAGG | 0.00203
17 | AAGTTTGG | -0.0494
18 | ATCTTACG | 0.0618
19 | CCGCCGAG | 0.394
20 | AACTGCGG | 0.178
21 | CGACAACG | -0.0324
22 | ATTAACGA | 0.0839
23 | CCGGGAAG | 0.309
24 | AAGATCGC | -0.194
25 | CGATACAG | 0.0396

Row | Sequence | PBM E-score
26 | CCAATTTC | 0.18
27 | AGAGTATG | -0.0541
28 | AAATCGCT | -0.16
29 | CAGTAGCC | -0.0125
30 | GAACGAAA | -0.145
31 | CATTGACG | -0.157
32 | CCGTAGCA | -0.107
33 | AGGTTAAC | -0.0629
34 | GGTACTTA | 0.163
35 | ACCTTTGC | -0.107
36 | ATAGAGTC | -0.016
37 | CCAGTGGG | -0.119
38 | CCGTCCGA | 0.317
39 | ACACGTCC | -0.0618
40 | AAAGAGCC | -0.0224
41 | ATGGCCTG | -0.159
42 | CTTTGCTC | -0.0428
43 | AGCTTAAG | -0.244
44 | TAGCTGAA | -0.242
45 | GTCTGCAC | -0.122
46 | CCCCGCTC | -0.0289
47 | ACGGTCCA | -0.0376
48 | GCTATATA | -0.0174
49 | CGATCAAC | -0.128
50 | ACATCACG | -0.0148

Row | Sequence | PBM E-score
51 | ACCGCCCC | 0.241
52 | TACACTAA | -0.231
53 | ATGAGATG | -0.124
54 | CATCAGAA | -0.295
55 | AGGGCTGC | -0.134
56 | GAAACCCC | 0.177
57 | GGGTTTGA | -0.086
58 | ATTTCGGA | 0.454
59 | GTGTGTCA | -0.0816
60 | GGACACGA | -0.0328
61 | AGTTCCCG | 0.396
62 | AGCAAGAA | -0.0526
63 | AACTAGGC | -0.163
64 | CGCTTCCG | 0.402
65 | CAGTCCTA | -0.258
66 | ACCGGACT | 0.252
67 | CAGCGATG | -0.0906
68 | GAGTTGAC | 0.081
69 | GAGCCAAC | -0.29
70 | CGGATAAC | 0.452
71 | GAACCGAC | 0.286
72 | CAGTATCC | 0.146
73 | CTCCCTAC | -0.175
74 | GGGCGCAC | -0.0798
75 | ATAAAATG | -0.11

Row | Sequence | PBM E-score
76 | AATATTAC | 0.0217
77 | ACTCTGGC | -0.0577
78 | CGTGGTCA | -0.146
79 | AGCGGGAT | 0.0765
80 | AAGGACCA | -0.16
81 | ATATCGCA | -0.132
82 | ATAACAAT | -0.105
83 | TAAGGGGA | -0.059
84 | ACCCCCAC | -0.165
85 | ATCATCGG | 0.337
86 | AGAGTCAT | -0.335
87 | GCGCGTTA | 0.0702
88 | AGCGTCAA | -0.232
89 | ACTTCGAA | -0.167
90 | ATTGACGC | -0.226
91 | ACAGATGG | -0.256
92 | ACACGTGT | -0.0193
93 | AGGATGAC | -0.297
94 | ATGGTCGA | -0.177
95 | GAACGTCA | -0.175
96 | GGAAGAGA | 0.182
97 | CCGCCAGC | 0.133
98 | CGGTATTA | 0.319
99 | GATATGGC | -0.0731
100 | ATTTCATG | -0.23

Row | Sequence | PBM E-score
101 | ATTGAGTA | -0.123
102 | CGAAATGA | 0.193
103 | CAGAAGGC | -0.129
104 | CCGGGAGG | 0.27
105 | AGACAGAA | -0.159
106 | CTGTTGGA | -0.191
107 | GGAGACTA | -0.0362
108 | GCAACTCA | -0.215
109 | ACAATAAC | 0.0256
110 | CCGGCGAC | 0.186
111 | AGGGTTCC | 0.137
112 | CTGAAGCA | -0.165
113 | ACAAAAGG | -0.00204
114 | CCGCATCC | 0.233
115 | TAGCCTGA | -0.264
116 | CTACCCAG | -0.135
117 | CACTTAGG | -0.152
118 | ATTATAGA | -0.124
119 | CTCTTCGC | -0.203
120 | CAGGGGAG | -0.089
121 | CGGTTACG | 0.291
122 | GGCCCTTA | -0.0882
123 | ACGTAATA | -0.125
124 | ATTTATTC | 0.114
125 | GATCGATA | -0.064

Row | Sequence | PBM E-score
126 | GGTACATA | 0.203
127 | GAAAACGC | -0.0799
128 | CCACAGAA | -0.0915
129 | AACACGAT | 0.0151
130 | AATCGCAC | -0.281
131 | ATTGGGTA | -0.22
132 | CTCATAGC | -0.26
133 | ACTTGCCA | -0.149
134 | ATGTGAGG | -0.0328
135 | GAATTTTA | -0.0123
136 | AGGGGGAT | -0.135
137 | ACTAGAAC | 0.0472
138 | GGAATGCA | 0.168
139 | AGTTAGAT | -0.321
140 | AGAGACTG | -0.186
141 | ACCGAGCA | 0.374
142 | ACTCGCCA | -0.214
143 | ATCACCGC | -0.0862
144 | GTTTATCA | 0.042
145 | ACGAGTTG | 0.0016
146 | ACGCGTTA | -0.0856
147 | ATTCTGCC | 0.198
148 | TAGCAGGA | -0.134
149 | AAGTTCTG | -0.053
150 | CAGAGACC | -0.132

Row | Sequence | PBM E-score
151 | AATAGAAG | -0.138
152 | GGGCGAAA | -0.102
153 | AACCTCGG | 0.452
154 | GGTTAGAC | -0.00117
155 | CTTAGAAA | -0.0847
156 | CGCGCGGA | 0.227
157 | CTCGCCTC | -0.208
158 | CTGCTCGC | -0.0171
159 | CTGGATAC | -0.0349
160 | ACATCACT | -0.183
161 | CATCAACG | 0.00326
162 | GATAGGAC | -0.0721
163 | GGGTTAGA | -0.0491
164 | CAGCAATC | -0.0443
165 | TGGTACCA | 0.0458
166 | ACGACATG | -0.26
167 | AAAACCCG | 0.351
168 | CTATTCAC | 0.0895
169 | CAAGAAGA | -0.0306
170 | AAGAGTGT | -0.0765
171 | AACATGAT | 0.0111
172 | CACGAACC | -0.198

— the supplement of paper PMC3334620
